Experimental data: the supplement of paper PMC11417369
This is one part of the list.

What follows are sequences tested on PfSIP2 AP2 domain 1 (GST-tagged) (assay: gcPBM binding intensity (ln(normalized median fluorescence intensity)); higher = stronger DNA binding).
How it was run: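 GST-fused DNA-binding domains of P. falciparum, expressed in E. coli, were applied at about 25 μg on average for 1 h to an Agilent 4 × 180k array of primer-extended double-stranded 36-bp intergenic genomic probes and negative controls. Binding intensity is the highest Masliner-normalised natural-log median intensity across replicate spots of either probe orientation, measured with Alexa488 anti-GST antibody and a 488 nm scan.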

Sequence	gcPBM binding intensity (ln)
TTTTTTAAATTGGTAGTGCAATATGATTGAACAAAA [GTGCAC_site9715]	8.19
AAATTATTAAAAAAGTGTACATATTTTTATAATACC [XGTACX_site5610]	7.4
ATAAGCATACATATTACACACATATAACATCTATAT [CACACA_site7219]	7.08
GGGTATACCAATATAACACACATATATATATAATAT [CACACA_site450]	7.1
TTAATCAAATTACTATGTACATAAAACATATAAGAA [XGTACX_site381]	7.22
TATTTTTTTTCAAAAAAGTTTATTTAGAACTAAATA [XGTACX_negctrl_site487]	6.79
TAAAAAAAAACTCATGCACACAATATTATGAAAAAG [CACACA_site665]	7.42
AAATATTATGTACGCACACACATTTTTAATATATAA [CACACA_site3851]	7.37
TTATTTACAACTTCAAATTATGTGTAATACTACTAT [CACACA_negctrl_site741]	6.91
TTTTTTTCTTTTTACATACACACAAAAAAATAAAAT [CACACA_site580]	7.17
AGCACATTATTCAAAAGTACAAATAGGTATTGTATA [XGTACX_site6107]	6.96
AATATAAAAAAAAAAAAAAAAAAAAAAAAAAAGACA [CACACA_negctrl_site983]	6.84
CAATTATTGTAATGCATGCACTGAATATAAAAAGAA	9.18
TTTATATGTATTAAGTGTACACATATAATGTATTTT [XGTACX_site16]	7.35
AAATTAATGTATATGTGAAGCAAGGGATGCGGCAGA [CACACA_negctrl_site406]	7.48
ATATATATATATATATAATATATAATATATATATAT [CACACA_negctrl_site96]	9.43
TTCATATTCGATAAAGTGCATTAATTTTATTTATCA	8.36
TCCAATTGTTCTAGTGTGCACATAAATAAATCTCAT	9.07
AATACTTTTTTCTGTACACACTTGATTTACTATAAT [CACACA_site5544]	7.29
AAGAGTTAAAAAAATACACACATATAGATTTTTTTA [CACACA_site7018]	6.74
ATAAATAAAAAAGAAAGAAAGAAAGAAACAAACAAA [CACACA_negctrl_site1198]	6.74
TATTAATGCAAATGTTATATGTGCATACATAAATGT [CACACA_negctrl_site790]	7.14

Sequence	gcPBM binding intensity (ln)
TATTACATACATATCTGTACATATATTAATGCACAA [XGTACX_site3315]	8.49
AAAAATATTAAAAAAGGTACACAGCATATCTCTTTT [XGTACX_site65]	6.85
TATATCTGTAAATGCACACATATGTGGATATACTTA [CACACA_site5013]	7.2
GTTCATTCATTTTAATGTACAAATTTAACTTTTTCT [XGTACX_site680]	6.91
TATAAATATAAATACACACACATATAGATTATAGAT [CACACA_site6429]	7.02
TGCTACATTCTATGTACACACATATACATATATATA [CACACA_site893]	7.35
TCTAATAATATATACACACACATATATATTTATATA [CACACA_site2032]	6.89
TAAGACATGATATATACACACCTTGTTTTAATTTTC [CACACA_site5282]	6.65
AGAAATTATAAATACCTACACACTTATCAAAATAAA [CACACA_site2264]	6.72
GATAAAGTAAAAATATGTACATATATATTTTAAGTT [XGTACX_site6439]	7.05
TCTTTTCAATTATCCTATATTCTTTTATTTTTAATT [GTGCAC_negctrl_site326]	7.12
CATACACCCATACATACACACATACATACACCCATA [CACACA_site5124]	7.3
AACAAATAAAGCTATGACATGTTAAAATTGTTTCAC [XGTACX_negctrl_site67]	6.8
ATATCTAAATATATTACACACAGATATCTTCCTATA [CACACA_site3701]	6.93
ATAAAGGAATTTTATACACACAACATATAAATATAT [CACACA_site7365]	6.97
AGAGAAAAATATTTGGACAAAAATAATATAATATAT [CACACA_negctrl_site656]	6.96
ATTCGTATGAGCATAACACACAATATCGATATTTCT [CACACA_site4165]	6.83
AATTAAAATACAAATGTATGCATGTCTCATATAGAA [TGCATGCA_site822]	6.78
TTACGAATTACATATTGTACATATGCACAATTTTAA [XGTACX_site6802]	7.4
TACATAATTTAAAATTTTATAAGTTGTAATTCGTTT [XGTACX_negctrl_site308]	6.69
ATAAAACAACAAAGAAAATGAAAAAGTAAAAACATA [CACACA_negctrl_site596]	6.69
TATTTATAAAAAGATTGTACATTTTTTATTATTGTA [XGTACX_site6016]	7.01
